About 340 (0.77%) of roughly 44,000 compounds were called active. Another 5% or so got no clear call; they are omitted. Calls follow the shape of the dose curve; as a rule, active = well fitted inhibition curve with a large enough effect; inconclusive = small, poorly fitted or top-dose-only effect; inactive = flat fitted curve, though single readings scatter. Some of the results follow.
Experiment: Acumen qHTS Assay for Inhibitors of the mTORC1 Signaling Pathway in MEF (Tsc2-/-, p53-/-) Cells: Sytravon;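 also: plate controls were DMSO for no effect and rapamycin for full effect; nearly all actives have a fitted effect of over 50% in size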
Conditions: phospho-rpS6 immunofluorescence/PI, 24 h; series mostly up to 38.3 µM; activity change, negative = inhibition: at the top concentration
Outline: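 Compounds act on Tsc2-/-, p53-/- fibroblasts carrying an empty vector for 24 h before fixation and dual staining for phospho-S6 and DNA (propidium iodide). Values are percentages of cells above a rapamycin-defined pS6/PI threshold.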

Activity change, negative = inhibition, inactive:
O=C(NCCc1ccccc1)c1ccc2nc(N3CCCCC3)sc2c1 0.877%
CCCn1c2ccccc2c2cnn(CC(=O)NCCCN3CCCCC3)c(=O)c21 -13.5%
CCOc1ccc(NC(=O)c2sc3nc4c(c(-c5ccccc5)c3c2N)C(=O)CC(C)(C)C4)cc1 -3.67%
Cc1ccc(S(=O)(=O)c2cnc(SCC(=O)Nc3ccc4c(c3)OCCO4)[nH]c2=O)cc1Cl -0.48%
CCOc1cc(C2C(C(=O)OC)=C(C)NC3=C2C(=O)c2ccccc23)ccc1OC (stereo unspecified) -3.7%
O=S(=O)(NCC(c1ccco1)N1CCOCC1)c1ccc(Br)cc1 (stereo unspecified) 0.749%
Cc1ccccc1-c1ccnc2[nH]n(-c3ccccc3)c(=O)c12 -3.14%
Cc1ccccc1NC(=O)c1cn(-c2ccccc2)nc1-c1ccccc1 2.56%
COc1ccc(OC)c(CN2CCN(S(=O)(=O)c3ccccc3)CC2)c1 -16.7%
Cc1ccc2oc(C(=O)N(Cc3ccc(N(C)C)cc3)CC3CCCO3)c(C)c2c1 (stereo unspecified) -13.7%
CCOC(=O)c1c(NC(=O)CSc2cn(CCNC(=O)c3cccc(C(F)(F)F)c3)c3ccccc23)sc2c1CCC2 -13.4%
CC(NC(=O)C1CCN(S(=O)(=O)c2ccc(F)cc2)CC1)c1ccccc1 (stereo unspecified) 7.61%
COc1cccc(C(=O)Nc2nc3ccc(S(=O)(=O)N4CCCC4)cc3s2)c1 -7.11%
CC1CCC(N2CC(=O)N(C3CCCCC3)C(c3ccc(Cl)cc3)C2=O)CC1 (stereo unspecified) 0.244%
CC(C)Oc1ccc(C(=O)N2CCC(c3nc4ccccc4o3)CC2)cc1 -2.75%
COc1ccc(-c2cc(C(=O)Oc3ccc(C)cc3)c3ccccc3n2)cc1 4.28%
Cc1ccc(NS(=O)(=O)c2ccc(-c3cnc(C4CC4)o3)cc2)cc1N(C)C -18.4%
CC(=O)Nc1ccc(NC(=O)CSc2nccn2Cc2ccc3c(c2)OCO3)cc1 -2.4%
COc1cc(NC(=O)CSc2ncc3c(n2)-c2ccc(Cl)cc2N(Cc2ccccc2)S3(=O)=O)cc(OC)c1 3.27%
CC(C)c1ccc(NC(=O)CSC2=Nc3ccccc3C3=NC(CC(=O)NCc4cccs4)C(=O)N23)cc1 (stereo unspecified) 1.3%
CN(C)CCNC(=O)C1CCN(c2ncnc3c2nc2n3CCCCC2)CC1 -2.23%
O=C1CSC2(C(=O)N(Cc3ccccc3F)c3ccccc32)N1c1cccc(C(F)(F)F)c1 (stereo unspecified) -2.98%
O=C(Cn1ncc2c3ccccc3n(Cc3ccc(Cl)cc3)c2c1=O)NCCC1=CCCCC1 -1.47%
CCOc1ccccc1CNC(=O)CCc1c(C)nn(-c2ccc(N3CCCCC3)nn2)c1C -13.3%
CCc1ccc(C(=O)COC(=O)C(Cc2c[nH]c3ccccc23)NC(=O)c2ccc(CC)cc2)cc1 (stereo unspecified) -0.74%
COc1ccc(CNC(=O)c2cc3cc4ccc(C)cc4nc3o2)cc1 -6.88%
O=C(Cc1ccccc1)Nc1c(C(=O)c2ccccc2)oc2ccccc12 3.43%
Cc1ccc(NC(=O)CSc2nnc(-c3nnn(-c4ccc(F)cc4)c3C)o2)cc1Br 0.441%
Cc1nc(-c2cccc(F)c2)sc1CCNC(=O)c1c(F)cccc1Cl -2.28%
COc1cccc(N2CCN(C(=O)c3cc4c(s3)-c3c(C)cccc3OC4)CC2)c1 -8.1%
CCCCn1c(=NC(=O)C(C)(C)Oc2ccc(Cl)cc2)c(C(=O)OCC)cc2c(=O)n3ccccc3nc21 1.45%
Cc1ccc(OCC(=O)Nc2nonc2-c2ccc(C)c(C)c2)cc1C -0.314%
O=C(Nc1ccc(OC(F)(F)F)cc1)C(Cc1ccccc1)NS(=O)(=O)c1cccc2nsnc12 (stereo unspecified) -9.75%
COc1ccccc1C(=O)Nc1cccc(C(=O)OCc2cc(=O)n3nc(C4CC4)sc3n2)c1 0%
CC(C)Cc1nn2c(=O)cc(COC(=O)CNC(=O)c3ccc(C(C)(C)C)cc3)nc2s1 -5.21%
Cc1ccc(C)c(CNC(=O)c2ccc3c(c2)nc2n3CCOC2)c1 0%
COC(=O)c1ccc(C2c3c(oc4ccc(C)cc4c3=O)C(=O)N2Cc2ccc3c(c2)OCO3)cc1 (stereo unspecified) 13.3%
Cc1ccc(S(=O)(=O)c2nnn3c2nc(NCc2ccc4c(c2)OCO4)c2sccc23)cc1 0.145%
CCOC(=O)c1c(Nc2ccc(O)cc2)nnc(-c2ccccc2)c1-c1ccccc1 -8.88%
COc1cccc(CNC(=O)Cn2ccc3cc(S(=O)(=O)N4CCCC4)ccc32)c1OC -13.7%
CCOC(=O)c1cnc2ccc(OC(F)(F)F)cc2c1Nc1ccccc1C(=O)O -7.54%
CCC1Oc2ccc(C)cc2N(CC(=O)NCCc2ccccc2)C1=O (stereo unspecified) 15.3%
Cc1ccc(NC(=O)CCCN2C(=O)COc3ccc(C)cc32)c(Cl)c1 0.128%
COc1cccc(/C=C/c2nc(C#N)c(N3CCCCCC3)o2)c1 -11.9%
CCOC(=O)c1cnn2c(C(F)(F)F)cc(-c3ccc(Br)cc3)nc12 2.35%
COc1ccc(-c2cnc(C)o2)cc1S(=O)(=O)Nc1cccc(C(F)(F)F)c1 -9.69%
O=C(Nc1cccc(C(F)(F)F)c1)C1CCN(S(=O)(=O)c2cccc3nsnc23)CC1 -7.57%
O=C(Nc1ccc(OCc2cc(=O)n3c4c(sc3n2)CCCC4)cc1)c1ccc(F)cc1 0.659%
Cc1ccccc1-c1noc(CSc2nc(-c3ccc(F)cc3)cc(=O)[nH]2)n1 -26.5%
COc1ccc(-n2nnnc2SCC(=O)NCCc2ccccc2)cc1 1.81%
COC(=O)Cc1c(C)c2ccc3c(c2oc1=O)CN(Cc1ccc(C)cc1)CO3 0%
NC(=O)C1CCN(c2ncnc3c2cnn3-c2cccc(Cl)c2)CC1 6.44%
CC(C)COc1ccc(C(=O)Nc2onc3c2CCCC3)cc1 -5.52%
Cc1ccc(NC(=O)Cn2nc(C(F)(F)F)c3c2CCC3)cc1C -11.9%
CCOc1ccc(CCNC(=O)CCn2c(=O)c3cccn3c3ccc(F)cc32)cc1 4.19%
Cc1cccc(CNC(=O)CCCN2C(=O)c3cccnc3Oc3ccccc32)c1 -15.5%
COc1ccc(-c2noc(-c3ccc(NCc4ccco4)c([N+](=O)[O-])c3)n2)cc1OC -1.46%
CCc1ccc(N2CC(c3nc4ccccc4n3Cc3ccccc3C)CC2=O)cc1 (stereo unspecified) 1.73%
CCOc1ccc(C(=O)NCCc2sc(-c3cccc(F)c3)nc2C)cc1OCC -0.667%
O=C(CSc1oc(-c2cccs2)nc1S(=O)(=O)c1ccccc1)Nc1ccc(F)cc1 -18%
CN(C(=O)CSc1nc2ccc(NC(=O)c3ccccc3)cc2s1)c1ccccc1 -21.3%
Cc1ccc(C2=NN(CCC(=O)NCCc3cccc(C)c3)C(=O)CC2)cc1 -1.55%
COc1ccc(Cn2c(NCC(C)C)nc3c2c(=O)n(C)c(=O)n3C)cc1 0.859%
CC(=O)Nc1cccc(-c2nnc(SCC(=O)c3ccc([N+](=O)[O-])cc3)o2)c1 -3.8%
COc1ccc(OC)c(CNC(=O)c2cnc(N(C)C)nc2)c1 0%
CCOc1ccccc1/C=C/c1onc(C)c1S(=O)(=O)N1CCC(C(=O)N2CCCCC2)CC1 5.11%
CCOC(=O)CSc1nc(-c2ccc(OC)cc2)cc(C(F)(F)F)c1C#N 8.05%
COc1cc(CN(C(=O)c2ccc(C)cc2)c2ccccn2)cc(OC)c1OC 0.231%
Cc1ccc(-n2nc(C)c3c(C(=O)Nc4ccc(C)cc4Cl)cc(C)nc32)cc1 -6.68%
O=C(Cn1nc2c(cc1=O)CCCC2)NCc1ccccc1 -6.99%
COc1ccc(-n2nc(C(=O)N3CCN(c4cccc(C)c4)C(C)C3)c3c4ccccc4n(C)c3c2=O)cc1Cl (stereo unspecified) 1.97%
Cc1ccccc1-c1noc(-c2ccc(NC3CCCC3)c([N+](=O)[O-])c2)n1 0.929%
O=S(=O)(c1ccc2nc(Nc3ccc(Br)cc3F)ccc2c1)N1CCCC1 1.37%
CCc1nnc(NC(=O)c2nc(SCc3ccc(F)cc3)ncc2Cl)s1 -1.48%
CCOc1ccc(OCC)c(NS(=O)(=O)c2ccc3c(c2)CCCN3C(C)=O)c1 -3.12%
CCCCn1c(C2CC(=O)N(c3ccc(OCC)cc3)C2)nc2ccccc21 (stereo unspecified) -4.38%
O=C(OCC1CCCO1)c1ccc2c(c1)N(Cc1c(F)cccc1Cl)C(=O)c1ccccc1S2(=O)=O (stereo unspecified) 0.808%
Cc1cc(C)c(NC(=O)c2ccc3nc(C(C)C)oc3c2)c(C)c1 2.73%
CCOCCn1c(=NC(=O)c2ccc3c(c2)OCCO3)sc2cc(OCC)ccc21 -4.34%
Cc1cccc(S(=O)(=O)c2cn(Cc3ccc(F)cc3)c3cc(N4CCOCC4)c(F)cc3c2=O)c1 -0.0113%
O=C(Nc1ccccc1C(F)(F)F)C1CCN(c2nnc(-n3cccc3)s2)CC1 2.99%
Cc1ccc(Cl)cc1N1CCN(C(=O)c2cnc3c(-c4ccc(F)cc4)c(C)nn3c2C)CC1 0%
CCC(C(=O)NC1CCCCC1)n1nc(C)c2sc3ccccc3c2c1=O (stereo unspecified) -1.41%
CCN(CC)S(=O)(=O)c1ccc2c(c1)c(=O)c(C(=O)N1CCN(c3cc(C)ccc3C)CC1)cn2C -0.413%
O=C(Cn1cc(SCc2ccc(F)cc2)c2ccccc21)N1CCCC1 -2.96%
COc1ccc(NCc2cccn2-c2nnc(N3CCC(C)CC3)s2)c(OC)c1 -12.8%
Cc1cccc(-c2nc(S(=O)(=O)c3ccccc3)c(N3CCN(c4ccccc4)CC3)o2)c1 6.49%
CSc1ccc(-c2nc3cc(C)ccn3c2Nc2ccc(C)cc2)cc1 -1.24%
CCc1ccc(NC(=O)C(=O)NCCc2sc(-c3ccc(C)cc3)nc2C)cc1 0.258%
O=C(CSc1nc2c(c(=O)[nH]1)CCC2)Nc1cc(C(F)(F)F)ccc1Cl -0.354%
Cn1ccc2c(OCC(=O)NCc3ccc(F)cc3)cccc2c1=O 1.46%
Cc1ccc(C(=O)c2cn(Cc3ccccc3)c3cc4c(cc3c2=O)OCCO4)cc1 -16.1%
CCc1cccc(NC(=O)CSc2nccn2C)c1 5.53%
COc1c(Cl)cc(Cl)cc1C(=O)Nc1cccc2cccnc12 4.05%
CCOC(=O)c1cc(S(=O)(=O)Nc2cc(C)c(Cl)cc2OC)[nH]n1 0.206%
CC(C)OCCCNC(=O)c1c2c(nc3ccccc13)C(=O)N(C1CCCCC1)C2 -10.4%
